From a collection of fitness landscapes (doi:10.1126/science.1257360)
This is one part of the list.

B1: PhoQ; a variant is named by its letters at X, in order, P23837 (parent)
chain: MKKLLRLFFPLSLRVRFLLATAAVVLVLSLAYGMVALIGYSVSFDKTTFRLLRGESNLFYTLAKWENNKLHVELPENIDKQSPTMTLIYDENGQLLWAQRDVPWLMKMIQPDWLKSNGFHEIEADVNDTSLLLSGDHSIQQQLQEVREDDDDAEMTHSVAVNVYPATSRMPKLTIVVVDTIPVELKSSYMVWSWFIYVLSANLLLVIPLLWVAAWWSLRPIEALAKEVRELEEHNRELLNPATTRELTSLVRNLNRLLKSERERYDKYRTTLTDLTHSLKTPLXXLQXXLRSLRSEKMSVSDAEPVMLEQISRISQQIGYYLHRASMRGGTLLSRELHPVAPLLDNLTSALNKVYQRKGVNISLDISPEISFVGEQNDFVEVMGNVLDNACKYCLEFVEISARQTDEHLYIVVEDDGPGIPLSKREVIFDRGQRVDTLRPGQGVGLAVAREITEQYEGKIVAGESMLGGARMEVIFGRQHSAPKDE

Variants of: B1
Test: enrichment ratio after two sorts for PhoP signalling (ratio (wild type AVST 3.29)); higher = more functional
Conditions: with PhoP (E. coli)

Row | Variant | enrichment ratio
1 | KEVY | ≤ 0.25
2 | MQKL | ≤ 0.25
3 | ALAT | 1.17
4 | IYHN | ≤ 0.25
5 | HSTY | ≤ 0.25
6 | HLDG | ≤ 0.25
7 | RTEF | ≤ 0.25
8 | KAYH | ≤ 0.25
9 | KMYM | ≤ 0.25
10 | ALAV | 8.34
11 | KRYE | ≤ 0.25
12 | PIPG | ≤ 0.25
13 | IWAQ | ≤ 0.25
14 | TLFA | ≤ 0.25
15 | TWLG | ≤ 0.25
16 | ETTF | ≤ 0.25
17 | FYPI | ≤ 0.25
18 | HRWG | ≤ 0.25
19 | QFRI | ≤ 0.25
20 | RWLQ | ≤ 0.25
21 | FQVV | ≤ 0.25
22 | IWAE | ≤ 0.25
23 | MEFK | 1.13
24 | HNNT | ≤ 0.25

Row | Variant | enrichment ratio
25 | IREM | ≤ 0.25
26 | VVCL | ≤ 0.25
27 | QHRS | ≤ 0.25
28 | FYEP | ≤ 0.25
29 | EKFL | ≤ 0.25
30 | QVQS | ≤ 0.25
31 | FGQG | ≤ 0.25
32 | SCQR | ≤ 0.25
33 | FTIW | ≤ 0.25
34 | RWET | ≤ 0.25
35 | HVMP | ≤ 0.25
36 | HYEF | ≤ 0.25
37 | AWFF | ≤ 0.25
38 | QSAR | ≤ 0.25
39 | YMAI | 0.259
40 | CKSC | ≤ 0.25
41 | CICL | ≤ 0.25
42 | LDMD | ≤ 0.25
43 | WQMY | ≤ 0.25
44 | RESE | ≤ 0.25
45 | PIEA | ≤ 0.25
46 | SDWI | ≤ 0.25
47 | PLAC | ≤ 0.25
48 | MSFD | ≤ 0.25

Row | Variant | enrichment ratio
49 | VAIR | ≤ 0.25
50 | WNRY | ≤ 0.25
51 | TSKK | ≤ 0.25
52 | QRNV | ≤ 0.25
53 | LLNA | ≤ 0.25
54 | PYHQ | ≤ 0.25
55 | WQYF | ≤ 0.25
56 | VYIA | ≤ 0.25
57 | EMLD | ≤ 0.25
58 | MFQD | ≤ 0.25
59 | MRWF | ≤ 0.25
60 | QQDA | 4.59
61 | IMTI | ≤ 0.25
62 | LMEM | ≤ 0.25
63 | KVYG | ≤ 0.25
64 | HKHH | ≤ 0.25
65 | ICVT | ≤ 0.25
66 | RHKP | ≤ 0.25
67 | AMSY | 6.47
68 | YDCD | ≤ 0.25
69 | TMAG | 7.16
70 | HSLH | ≤ 0.25
71 | HQDW | ≤ 0.25
72 | EASP | ≤ 0.25

Row | Variant | enrichment ratio
73 | MFVR | ≤ 0.25
74 | LEPY | ≤ 0.25
75 | NKGC | ≤ 0.25
76 | NIMR | ≤ 0.25
77 | AGHR | ≤ 0.25
78 | VCAI | 5.25
79 | KEQY | ≤ 0.25
80 | IWRK | ≤ 0.25
81 | TSRV | ≤ 0.25
82 | HKRV | ≤ 0.25
83 | WYIE | ≤ 0.25
84 | HNWP | ≤ 0.25
85 | PWRW | ≤ 0.25
86 | PQDS | ≤ 0.25
87 | QMFI | ≤ 0.25
88 | VTKG | ≤ 0.25
89 | ESLE | ≤ 0.25
90 | RYWK | ≤ 0.25
91 | TCKS | ≤ 0.25
92 | TTMK | ≤ 0.25
93 | DPEP | ≤ 0.25
94 | TDYM | ≤ 0.25
95 | HNKA | ≤ 0.25
96 | QNAC | ≤ 0.25

Row | Variant | enrichment ratio
97 | QQPV | ≤ 0.25
98 | DFKE | ≤ 0.25
99 | THWS | 1.22
100 | MTLG | 4.49
101 | WHPR | ≤ 0.25
102 | VLNY | ≤ 0.25
103 | QHKL | ≤ 0.25
104 | MVTR | ≤ 0.25
105 | VPVN | ≤ 0.25
106 | KGKR | ≤ 0.25
107 | HGIQ | ≤ 0.25
108 | RPMI | ≤ 0.25
109 | KEQE | ≤ 0.25
110 | TEWN | 9.81
111 | ECPR | ≤ 0.25
112 | ARVF | 0.299
113 | VMVV | ≤ 0.25
114 | IEDF | ≤ 0.25
115 | EFDI | ≤ 0.25
116 | WEHF | ≤ 0.25
117 | RMSM | ≤ 0.25
118 | SNPY | ≤ 0.25
119 | WTKM | ≤ 0.25
120 | IKKI | ≤ 0.25

Row | Variant | enrichment ratio
121 | MMCP | ≤ 0.25
122 | AYAY | ≤ 0.25
123 | HYTC | ≤ 0.25
124 | HPHR | ≤ 0.25
125 | QSWV | 22.9
126 | DGHN | ≤ 0.25
127 | SGHD | ≤ 0.25
128 | DGCH | ≤ 0.25
129 | QANP | ≤ 0.25
130 | IHQI | ≤ 0.25
131 | EDDG | ≤ 0.25
132 | QIKT | ≤ 0.25
133 | GEWR | ≤ 0.25
134 | RHPY | ≤ 0.25
135 | DKLC | ≤ 0.25
136 | DPRN | ≤ 0.25
137 | VQCT | ≤ 0.25
138 | QKRT | ≤ 0.25
139 | FHCV | ≤ 0.25
140 | MMSV | 5.06
141 | GKMF | ≤ 0.25
142 | RSKI | ≤ 0.25
143 | YEHP | ≤ 0.25
144 | DTMA | ≤ 0.25

Row | Variant | enrichment ratio
145 | SMHG | ≤ 0.25
146 | GPCR | ≤ 0.25
147 | HKQK | ≤ 0.25
148 | IVPE | ≤ 0.25
149 | NELT | ≤ 0.25
150 | VEQR | ≤ 0.25
151 | GCMK | ≤ 0.25
152 | STPP | ≤ 0.25
153 | EMYH | ≤ 0.25
154 | VSFS | ≤ 0.25
155 | LTCI | ≤ 0.25
156 | YIWS | ≤ 0.25
157 | FMFL | ≤ 0.25
158 | LCTM | ≤ 0.25
159 | GFMC | ≤ 0.25
160 | EGPG | ≤ 0.25
161 | KIYP | ≤ 0.25
162 | WCKG | ≤ 0.25
163 | YHQE | ≤ 0.25
164 | EYWW | ≤ 0.25
165 | YNTF | ≤ 0.25
166 | KCSP | 0.504
167 | NKKD | ≤ 0.25
168 | IGTL | ≤ 0.25

Row | Variant | enrichment ratio
169 | HKNI | ≤ 0.25
170 | EFQR | ≤ 0.25
171 | LRAE | ≤ 0.25
172 | RHYP | ≤ 0.25
173 | DIRD | ≤ 0.25
174 | EAAI | ≤ 0.25
175 | NDIY | 2.6
176 | LAYP | 0.263
177 | HYQY | ≤ 0.25
178 | ANQD | ≤ 0.25
179 | WVCF | ≤ 0.25
180 | IMYY | ≤ 0.25
181 | KKFS | ≤ 0.25
182 | QRFF | ≤ 0.25
183 | IQRH | ≤ 0.25
184 | RQLP | ≤ 0.25
185 | DTEY | ≤ 0.25
186 | MVLT | ≤ 0.25
187 | FTAD | 0.886
188 | TTCH | 15
189 | ELED | ≤ 0.25
190 | FDTE | ≤ 0.25
191 | NGIH | ≤ 0.25
192 | RWVF | ≤ 0.25

Row | Variant | enrichment ratio
193 | KQPA | ≤ 0.25
194 | WDIQ | ≤ 0.25
195 | RCRV | ≤ 0.25
196 | YCRT | ≤ 0.25
197 | SDQR | ≤ 0.25
198 | KTPC | ≤ 0.25
199 | IHHL | ≤ 0.25
200 | MNVK | ≤ 0.25
201 | RIFR | ≤ 0.25
202 | HWGP | ≤ 0.25
203 | GCYI | ≤ 0.25
204 | GNYF | ≤ 0.25
205 | AFPD | ≤ 0.25
206 | IDLC | ≤ 0.25
207 | KMCI | ≤ 0.25
208 | DDPH | ≤ 0.25
209 | NYYQ | ≤ 0.25
210 | MFKC | ≤ 0.25
211 | EIVK | ≤ 0.25
212 | WSWQ | ≤ 0.25
213 | LWHE | ≤ 0.25
214 | IHLS | ≤ 0.25
215 | AWVK | ≤ 0.25
216 | SCVN | 11.1

Row | Variant | enrichment ratio
217 | WSCY | ≤ 0.25
218 | NHVA | ≤ 0.25
219 | NKQD | ≤ 0.25
220 | PVWH | ≤ 0.25
221 | MRIT | ≤ 0.25
222 | WDIY | ≤ 0.25
223 | NAYK | ≤ 0.25
224 | TKSH | 0.457
225 | FVPE | ≤ 0.25
226 | GGRQ | ≤ 0.25
227 | KNLN | ≤ 0.25
228 | DGDR | ≤ 0.25
229 | FVLG | 4.02
230 | LFSY | ≤ 0.25
231 | ARFS | ≤ 0.25
232 | YHYI | ≤ 0.25
233 | ATTY | 5.36
234 | EEAQ | ≤ 0.25
235 | FSYT | ≤ 0.25
236 | EMCG | ≤ 0.25
237 | SVWV | ≤ 0.25
238 | TYPV | ≤ 0.25
239 | LEKE | ≤ 0.25
240 | PKAQ | ≤ 0.25

Row | Variant | enrichment ratio
241 | VYMC | 0.507
242 | DYSH | ≤ 0.25
243 | TAYH | 4.35
244 | VDGM | ≤ 0.25
245 | LEII | ≤ 0.25
246 | RDDM | ≤ 0.25
247 | IDWC | ≤ 0.25
248 | LWKA | ≤ 0.25
249 | IQGI | ≤ 0.25
250 | HYLW | ≤ 0.25
251 | SRFI | ≤ 0.25
252 | KMLC | ≤ 0.25
253 | DWVF | ≤ 0.25
254 | VSRN | ≤ 0.25
255 | LCWN | ≤ 0.25
256 | LIIY | ≤ 0.25
257 | NASQ | ≤ 0.25
258 | LEVS | 0.357
259 | KDVP | ≤ 0.25
260 | YIMT | 0.602
261 | RITM | ≤ 0.25
262 | GWLH | ≤ 0.25
263 | ELPS | ≤ 0.25
264 | HQYA | ≤ 0.25

Row | Variant | enrichment ratio
265 | ICTT | 11.9
266 | NNHR | ≤ 0.25
267 | TQLK | 4.42
268 | DTQF | ≤ 0.25
269 | LNKI | ≤ 0.25
270 | DQVD | ≤ 0.25
271 | KYAG | ≤ 0.25
272 | TAQH | ≤ 0.25
273 | KFHC | ≤ 0.25
274 | WDSY | ≤ 0.25
275 | MWLY | ≤ 0.25
276 | FYHM | ≤ 0.25
277 | CTYL | ≤ 0.25
278 | VIVR | ≤ 0.25
279 | FVFQ | ≤ 0.25
280 | VTQI | ≤ 0.25
281 | PFID | ≤ 0.25
282 | CYSN | ≤ 0.25
283 | SMAM | 8.06
284 | KTFL | ≤ 0.25
285 | VKNE | ≤ 0.25
286 | TSAA | 8.84
287 | DGHK | ≤ 0.25
288 | EYVQ | ≤ 0.25

Row | Variant | enrichment ratio
289 | LSDG | ≤ 0.25
290 | AAGV | ≤ 0.25
291 | GYMD | ≤ 0.25
292 | WFWR | ≤ 0.25
293 | TCQI | 15.2
294 | SVNR | 4.04
295 | WSPR | ≤ 0.25
296 | TGGP | ≤ 0.25
297 | HERK | ≤ 0.25
298 | EETA | ≤ 0.25
299 | MYGH | ≤ 0.25
300 | TKYV | 0.4
301 | YQIL | ≤ 0.25
302 | IMWA | ≤ 0.25
303 | AVIK | 1.18
304 | KEQA | ≤ 0.25
305 | NRYT | ≤ 0.25
306 | QDQP | ≤ 0.25
